Measurements published in PubChem BioAssay (NCATS).
“And” between values parts separate entries of the source, which are not always exact repeats. Equal entries are not always repeated. Inconclusive results, whose numbers are uncertain, are shown with a selection of clear calls. A potency beside an inconclusive call is a rough fit, not a confirmed value. The source made the active and inactive calls. Calls follow the shape of the dose curve; as a rule, active = well fitted curve in the direction sought with a large enough effect; inconclusive = small, poorly fitted or top-dose-only effect, or another doubt; inactive = no such curve, though single readings can be large; an effect the other way counts as inactive or inconclusive.

Key:
[1] = qHTS of pediatric cancer cell lines to identify multiple opportunities for drug repurposing: Primary screen for SK-N-MC cells (AID 1347093); settings: SK-N-MC viability, CellTiter-Glo luminescence, 48 h; activity change, negative = cytotoxic: at 46 µM (top of the series) unless noted;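 as to activity change, negative = cytotoxic: plate controls were DMSO neutral control for no effect and bortezomib for full effect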
Outline: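 Metabolically active cells were quantified by ATP-dependent luminescence (CellTiter-Glo, 15 min at room temperature) following 48 h treatment. Cells had been plated at 500-1,000 per well and settled for 5 h beforehand.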

[2] = qHTS of pediatric cancer cell lines to identify multiple opportunities for drug repurposing: Primary screen for BT-37 cells (AID 1347094);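 as to activity change, negative = cytotoxic: plate controls were DMSO for no effect and bortezomib for full effect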
Outline: (§1)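 Phenotypic viability qHTS, 48 h compound exposure, CellTiter-Glo luminescence read-out; multi-concentration dosing so that potency and efficacy derive directly from the primary screen's curves.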

[3] = qHTS of pediatric cancer cell lines to identify multiple opportunities for drug repurposing: Primary screen for NB-EBc1 cells (AID 1347095);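 as to activity change, negative = cytotoxic: plate controls were DMSO neutral control for no effect and bortezomib for full effect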
Outline: as §1

[4] = qHTS of pediatric cancer cell lines to identify multiple opportunities for drug repurposing: Primary screen for Saos-2 cells (AID 1347097); settings: Saos-2 viability, CellTiter-Glo ATP luminescence, 48 h; activity change, negative = cytotoxic: at 46 µM (top of the series) unless noted; also: nearly all actives have a fitted effect of over 40% in size; as to activity change, negative = cytotoxic: % is scaled to controls: 0 for no effect and ±100 for the full control effect
Outline: as §1

[5] = qHTS of pediatric cancer cell lines to identify multiple opportunities for drug repurposing: Primary screen for NB1643 cells (AID 1347099); also: nearly all actives have a fitted effect of over 50% in size;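 as to activity change, negative = cytotoxic: plate controls were DMSO neutral control for no effect and bortezomib positive control for full effect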
Outline: as §1

[6] = qHTS of pediatric cancer cell lines to identify multiple opportunities for drug repurposing: Primary screen for LAN-5 cells (AID 1347100); settings: LAN-5 neuroblastoma viability, CellTiter-Glo luminescence, 48 h; activity change, negative = cytotoxic: at 46 µM (top of the series) unless noted;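 as to activity change, negative = cytotoxic: plate controls were DMSO neutral control for no effect and bortezomib positive control for full effect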
Outline: (§2)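 Cells (500-1,000/well) rested 5 h, then received compounds for 48 h; metabolically active cells were measured by CellTiter-Glo luminescence. Final concentrations spanned up to 46 µM (MIPE, 11-point) or 0.59 nM-46 µM (NPC, 8-point) in primary screens, 11-point in follow-ups.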

[7] = qHTS of pediatric cancer cell lines to identify multiple opportunities for drug repurposing: Primary screen for Rh18 cells (AID 1347102); also: nearly all actives have a fitted effect of over 65% in size
Outline: as §2

[8] = qHTS of pediatric cancer cell lines to identify multiple opportunities for drug repurposing: Primary screen for U-2 OS cells (AID 1347096); also: nearly all actives have a fitted effect of over 50% in size;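 as to activity change, negative = cytotoxic: plate controls were DMSO wells for no effect and bortezomib positive control wells for full effect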
Outline: as §2

[9] = qHTS of pediatric cancer cell lines to identify multiple opportunities for drug repurposing: Primary screen for SK-N-SH cells (AID 1347098); settings: SK-N-SH viability, CellTiter-Glo luminescence, 48 h; activity change, negative = cytotoxic: at 57 µM (top of the series) unless noted; also: nearly all actives have a fitted effect of over 65% in size;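 as to activity change, negative = cytotoxic: DMSO served as neutral control and bortezomib at 2.3 µM as positive control; % is scaled to controls: 0 for no effect and ±100 for the full control effect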
Outline: as §2

[10] = qHTS of pediatric cancer cell lines to identify multiple opportunities for drug repurposing: Primary screen for BT-12 cells (AID 1347101); also: nearly all actives have a fitted effect of over 25% in size
Outline: as §2
Potency is read from the fitted curve at half-maximal effect; tags tell the direction and shape of the fitted curve.

**Q.** Which results are given for `Cn1c(CCCC(=O)O)nc2cc(N(CCCl)CCCl)ccc21`?
**A.** Potency [1]: inconclusive: 26.6 µM [cytotoxic, partial curve, poor fit] and active: 26.4 µM; Potency [2]: inconclusive: 21.9 µM [cytotoxic, partial curve] and inconclusive: 24.3 µM [cytotoxic, partial curve]; Potency [3]: inconclusive: 18.8 µM [cytotoxic, single point] and active: 2.64 µM; Potency [4]: inconclusive: 23.7 µM [cytotoxic, single point]; Potency [5]: inconclusive: 23.7 µM [cytotoxic, single point]; Potency [6]: inconclusive: 29.9 µM [cytotoxic, single point] and inconclusive: 29.6 µM [cytotoxic, single point]; Potency [7]: inconclusive: 6.62 µM [cytotoxic, partial curve, poor fit]

**Q.** For `Oc1ccc(Cl)cc1Cc1ccccc1`, which Potency [1] is on record?
**A.** Its Potency is inconclusive: 69.3 µM [cytotoxic, single point].

**Q.** And the activity change, negative = cytotoxic [1]?
**A.** The activity change, negative = cytotoxic was inconclusive: -34.1% [cytotoxic].

**Q.** What about the Potency [2] of the same molecule?
**A.** Its Potency is inconclusive: 36.1 µM [cytotoxic, single point] and inconclusive: 43.7 µM [cytotoxic, single point].

**Q.** What about the Potency [3] of the same molecule?
**A.** Its Potency is inconclusive: 12.3 µM [cytotoxic, full curve] and inconclusive: 3.35 µM [cytotoxic, single point].

**Q.** And the Potency [8]?
**A.** The Potency was inconclusive: 24.6 µM [cytotoxic, partial curve, poor fit].

**Q.** And the Potency [5]?
**A.** The Potency was inconclusive: 69.3 µM [cytotoxic, single point].

**Q.** What about the Potency [6] of the same molecule?
**A.** The Potency was inconclusive: 11 µM [cytotoxic, full curve] and inconclusive: 3.35 µM [cytotoxic, single point].

**Q.** What about the Potency [7] of the same molecule?
**A.** The Potency was inconclusive: 21.9 µM [cytotoxic, partial curve].

**Q.** Which Potency [1] does the source give for `COc1ccc(C(=O)c2c(C)n(CCN3CCOCC3)c3cc(I)ccc23)cc1` here?
**A.** Its Potency is active: 1.48 µM.

**Q.** What about the Potency [2] of the same molecule?
**A.** The Potency was inconclusive: 24.3 µM [cytotoxic, partial curve].

**Q.** And the Potency [3]?
**A.** The Potency was active: 20.9 µM.

**Q.** And the Potency [8]?
**A.** The Potency was inconclusive: 29.6 µM [cytotoxic, single point].

**Q.** What about the Potency [9] of the same molecule?
**A.** Its Potency is inconclusive: 38.3 µM [cytotoxic, single point].

**Q.** And the Potency [6]?
**A.** The Potency was inconclusive: 37.2 µM [cytotoxic, single point].

**Q.** And the Potency [10]?
**A.** Its Potency is inconclusive: 21.7 µM [cytotoxic, partial curve].

**Q.** And the Potency [7]?
**A.** The Potency was inconclusive: 9.35 µM [cytotoxic, partial curve, poor fit].

**Q.** For `CC(C)NC(C)C`, which Potency [1] is on record?
**A.** Its Potency is “inactive”.

**Q.** Which Potency [1] does the source give for `c1ccc2nc(N3CCNCC3)ccc2c1` here?
**A.** Its Potency is inconclusive: 0.0033 µM [cytotoxic, full curve, poor fit].

**Q.** And the Potency [2]?
**A.** Its Potency is “inactive”.

**Q.** What about the Potency [3] of the same molecule?
**A.** The Potency was “inactive”.

**Q.** What about the Potency [8] of the same molecule?
**A.** Its Potency is “inactive”.

**Q.** And the Potency [4]?
**A.** Its Potency is “inactive”.

**Q.** And the Potency [9]?
**A.** The Potency was inconclusive: 30.7 µM [cytotoxic, single point].

**Q.** For `O=S(=O)(F)Cc1ccccc1`, which Potency [8] is on record?
**A.** Its Potency is “inactive”.

**Q.** For `Cn1cc(C2=C(c3cn(C4CCN(Cc5ccccn5)CC4)c4ccccc34)C(=O)NC2=O)c2ccccc21`, which Potency [8] is on record?
**A.** Its Potency is inconclusive: 14.8 µM [cytotoxic, partial curve].

**Q.** For `COc1ccc(C(=O)N2CCCC2=O)cc1`, which Potency [1] is on record?
**A.** The Potency was inconclusive: 23.5 µM [cytotoxic, partial curve, poor fit] and inconclusive: 7.5 nM [cytotoxic, partial curve, poor fit].

**Q.** And the Potency [4]?
**A.** The Potency was inconclusive: 37.2 µM [cytotoxic, single point].

**Q.** And the Potency [5]?
**A.** Its Potency is “inactive”.

**Q.** What does the source list for `Cc1cccc(C)c1NC(=O)CN1CCCC1=O`?
**A.** Potency [1]: inactive; Potency [4]: inconclusive: 15 µM [cytotoxic, single point]; Potency [6]: inactive

**Q.** For `NC1(c2ccccc2)CCCCC1`, which Potency [1] is on record?
**A.** The Potency was inconclusive: 76.2 µM [cytotoxic, partial curve, poor fit].

**Q.** And the Potency [4]?
**A.** Its Potency is “inactive”.

**Q.** What about the Potency [9] of the same molecule?
**A.** Its Potency is “inactive”.

**Q.** And the Potency [10]?
**A.** Its Potency is inconclusive: 35.3 µM [cytotoxic, partial curve, poor fit].

**Q.** For `C[C@@H]1CC[C@@]2(OC1)O[C@H]1C[C@H]3[C@@H]4CC=C5C[C@@H](O[C@@H]6O[C@H](CO)[C@@H](O[C@@H]7O[C@@H](C)[C@H](O)[C@@H](O)[C@@H]7O)[C@H](O)[C@@H]6O[C@@H]6O[C@@H](C)[C@H](O)[C@@H](O)[C@@H]6O)CC[C@]5(C)[C@@H]4CC[C@]3(C)[C@@H]1[C@H]2C`, which Potency [1] is on record?
**A.** The Potency was active: 1.32 µM.

**Q.** And the Potency [8]?
**A.** Its Potency is active: 9.35 µM.

**Q.** And the Potency [5]?
**A.** The Potency was active: 5.9 µM.
